Measurements published in PMC6919601, “Identification of Plasmodium dipeptidyl aminopeptidase allosteric inhibitors by high throughput screening” (PLoS ONE, 2019).
Screen size: about 110,000 compounds; about 230 (0.21%) showed an effect of 50% or more. This is one part of the list.

What follows are compounds tested against DPAP1 (Plasmodium falciparum, UniProt Q8IIJ9) (assay: primary screen, percent inhibition; read by cleavage of a fluorogenic dipeptide substrate; higher = more effect of the substance).
DPAP1, sequence (Q8IIJ9 whole entry, looked up): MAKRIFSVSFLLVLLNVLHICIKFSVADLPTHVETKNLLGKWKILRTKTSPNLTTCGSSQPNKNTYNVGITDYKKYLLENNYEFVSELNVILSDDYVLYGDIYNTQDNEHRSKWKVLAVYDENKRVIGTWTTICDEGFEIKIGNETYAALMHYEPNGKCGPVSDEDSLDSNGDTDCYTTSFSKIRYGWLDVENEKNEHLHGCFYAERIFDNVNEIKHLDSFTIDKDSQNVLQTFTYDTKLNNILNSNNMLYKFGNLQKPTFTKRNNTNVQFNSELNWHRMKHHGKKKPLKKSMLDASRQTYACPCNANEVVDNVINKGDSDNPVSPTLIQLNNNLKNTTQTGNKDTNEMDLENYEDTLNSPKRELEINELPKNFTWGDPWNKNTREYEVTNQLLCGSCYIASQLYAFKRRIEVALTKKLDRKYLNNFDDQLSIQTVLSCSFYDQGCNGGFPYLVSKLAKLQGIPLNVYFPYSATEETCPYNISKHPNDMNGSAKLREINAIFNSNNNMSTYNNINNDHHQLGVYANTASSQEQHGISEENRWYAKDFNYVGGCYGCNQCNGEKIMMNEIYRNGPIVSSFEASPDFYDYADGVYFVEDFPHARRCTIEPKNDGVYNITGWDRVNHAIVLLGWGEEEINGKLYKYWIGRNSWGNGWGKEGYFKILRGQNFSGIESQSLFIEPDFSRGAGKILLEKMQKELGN
Design: species or system P. falciparum D10 trophozoite lysates; single well
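Also: 30 min substrate incubation versus DMSO and 10 µM JCP410 controls.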

Compound | % Inhibition @ 10 uM
Cc1ccc(NC(=O)C2CCCN(S(=O)(=O)c3ccc4nc(O)ccc4c3)C2)nc1 (centres unmarked) | -6.16%
COC(=O)c1c(NC(=O)/C=C/c2ccc(OC)cc2)sc2c1CCCCC2 | -3.28%
Cc1ccc(CNC(=O)c2cc3c(s2)CSC3)cc1 | 0.44%
COc1ccc(Br)cc1/C=C1\N=C(c2ccc(Br)cc2)OC1=O | 0.78%
O=c1[nH]/c(=C/c2ccc(Cl)cc2Cl)c(=O)[nH]/c1=C/c1ccc(Cl)cc1Cl | 2.55%
COc1ccc(S(=O)(=O)Nc2cncc(C(=O)N3CCN(Cc4ccccc4)CC3)c2)cc1 | -10.2%
CC1=C(C(=O)Nc2ccccc2)C(c2ccc(C(C)C)cc2)N2C(=O)CSC2=N1 (centres unmarked) | 3.69%
COc1ccc(NC(=O)c2sc3nc(C)c(Cl)c(C)c3c2N)cc1 | -5.13%
Cc1noc(C)c1S(=O)(=O)N1CCC(C(=O)N2CCN(Cc3ccccc3)CC2)CC1 | -1.55%
O=C(CCCc1nnc2n3nc(-c4ccccc4)nc3c3ccccc3n12)NCc1ccc(F)cc1 | -2.92%
O=C(NCc1ccc(Cl)cc1)C(=O)Nc1ccc(F)cc1 | -7.02%
O=C(O)COCC(=O)Nc1nncs1 | -1.11%
COc1cc2nc(SCC(=O)NCc3ccco3)n3nc(-c4ccccc4)nc3c2cc1OC | 2.9%
CCOC(=O)c1sc(N)nc1-c1ccc([N+](=O)[O-])cc1 | 23.9%
O=C(CN1C(=O)S/C(=C/c2cccc(Br)c2)C1=O)N1CCOCC1 | -1.61%
COc1ccccc1-c1cc(C(=O)NC(C)c2ccccc2)no1 (centres unmarked) | 2.01%
CCCCNc1ncnc2c1nc1n2CCCCC1 | -0.0255%
COc1cccc2c(O)c(CC=C(Cl)Cl)c(C)nc12 | -3.09%
CCCN(CCC)S(=O)(=O)c1ccc(C(=O)N2CCOCC2)cc1 | 5.16%
CC(=O)OC(COCCC12CC3CC(CC(C3)C1)C2)CN1CCOCC1 (centres unmarked) | -0.233%
CC1CC(C)CN(C(=O)C2CCC(CNS(=O)(=O)c3cccc4cccnc34)CC2)C1 (centres unmarked) | 5.68%
O=C1/C(=C/c2ccc(Br)s2)Cc2ccccc21 | 6.2%
CCC(C)NC(=O)c1ccc(N(C)C)cc1 (centres unmarked) | -8.46%
CCS(=O)(=O)N1CCN(C(=O)COc2ccc(C)cc2)CC1 | 3.79%
O=C(Nc1ccc(/C=C/c2ccccc2)cc1)c1ccccc1F | -2.59%

Compound | % Inhibition @ 10 uM
Cc1ccc(S(=O)(=O)c2cc3c(=O)n4cc(C)ccc4nc3n(C3CCCC3)c2=N)cc1 | 1.57%
Cc1ccc(NS(=O)(=O)c2ccc(NC(=O)COc3ccccc3C)cc2)c(C)c1 | -3.41%
CC1(C)OC(=O)N(CCc2c[nH]c3c(C(F)(F)F)cccc23)C1(C)O (centres unmarked) | -3.34%
N#C/C(=C\c1ccccc1[N+](=O)[O-])c1nc(C2CC2)cs1 | -0.591%
CCOc1ccc(CCNCc2c(C(=O)O)[nH]c3cc(C)ccc23)cc1OCC | 1.8%
CNC(=O)C(C)n1nc(C)c2sc3ccccc3c2c1=O (centres unmarked) | -7.17%
COCCn1c(CN2CCN(Cc3ccccc3)CC2)nc2c1c(=O)n(C)c(=O)n2C | 3.63%
O=C(O)c1ccccc1SCN1C(=O)c2ccccc2C1=O | -1.12%
O=C(CN1C(=O)C2C3c4ccccc4C(c4ccccc43)C2C1=O)Nc1ccccc1C(=O)O (centres unmarked) | -1.65%
C=CCN1CCN(c2ccncc2S(=O)(=O)N(C)C)CC1 | 1.72%
CC1(c2ccc(Br)cc2)CC(c2ccc(Br)cc2)=Nc2ccccc2N1 (centres unmarked) | 4.08%
COc1cc(C)c(-c2[nH]nc(C)c2Oc2ccccc2)c(O)c1 | -5.69%
CCc1ccc(OCC(=O)NC(C)(C)C)c(Br)c1 | -4.43%
COc1ccc(CCNC(=O)[C@@H](c2ccccc2)N2Cc3ccccc3C2=O)cc1OC | 1.26%
COc1cccc2cc(C(=O)N3CCc4ccccc4C3)c(=O)oc12 | 0.484%
COc1cc2c(cc1OC)CN(C(=O)c1ccc(CNS(=O)(=O)c3cc(C)ccc3C)cc1)CC2 | -4.97%
CC(=O)N1CCN(Cc2cccc(F)c2)CC1 | 1.26%
O=C(CN1C(=O)CSc2ncccc21)NCCc1ccc(Cl)cc1 | -6.01%
CNC(=O)c1c(-c2ccccc2Cl)noc1C | 1.88%
CCOC(=O)c1c(C)n(C)c2ccc(OCC(O)CNCC3CCCO3)cc12 (centres unmarked) | -6.94%
CCN1CCN(C2CC3CCC2C3)CC1 (centres unmarked) | 1.57%
Fc1ccccc1CN1CCN(C/C=C/c2ccccc2)CC1 | 1.4%
Cc1ccc(CN(C)C2CCN(C)CC2)o1 | -2.34%
COc1ccc(C(=O)c2cn(-c3cccc(Br)c3)nc2C(C)=O)cc1 | -1.98%
CCc1ccc(C2N3CC4(CC)CN2CC(CC)(C3)C4=O)cc1 (centres unmarked) | -1.71%

Compound | % Inhibition @ 10 uM
COc1ccc(-c2cc(C(=O)Nc3nc4ccc(S(C)(=O)=O)cc4s3)c3ccccc3n2)cc1 | 0.64%
CC(C)C[C@H](NC(=O)c1ccc(O)c(C(C)(C)C)c1)C(=O)NCC#N | -6.98%
CC(C)C[C@H](NC(=O)c1cc2ccccc2cn1)C(=O)NCC#N | 5.05%
COC(=O)C1=C(C)NC(=O)/C1=C\c1ccc(Cl)cc1 | -9.9%
COC(=O)c1sccc1NC(=O)Cn1ncc2c3ccccc3nc-2c1O | 2.13%
C#CCN1C(=O)S/C(=C\c2cc(OC)c(N3CCCC3)cc2OC)C1=O | 3.35%
Cc1sc(NC(=O)Cn2nc(C(F)(F)F)cc2C)c(C#N)c1C | 0.385%
CCOc1ccc(/C=C(\NC(=O)c2ccc(C)cc2)C(=O)Nc2cccc(O)c2)cc1 | 4.67%
CCOc1cc(C2C(C#N)=C(N)Oc3ccc4ccccc4c32)ccc1O (centres unmarked) | -4.03%
Cc1cc(C)c2nc(N3CCC(C(=O)N4CCN(c5ccccn5)CC4)CC3)sc2c1 | 3.4%
COCc1[nH]nc2c1C(c1ccnc3ccccc13)C(C#N)=C(N)O2 (centres unmarked) | -0.68%
COC(=O)c1cc(S(=O)(=O)NCCN(Cc2ccco2)C2CCCC2)cn1C | -0.658%
COc1cc(CN2CCN(Cc3cccc(Br)c3)CC2)cc(OC)c1OC | 9.41%
CC12CN3CC(C)(CN(C1)C3c1ccc(O)cc1)C2O (centres unmarked) | 2.1%
CCOC(=O)N1CCN(S(=O)(=O)c2ccc3c(c2)OCCO3)CC1 | -9.83%
CN1CCCCc2c(n(Cc3ccccc3)c3ccccc23)C1=O | 3.34%
Cc1ccc(Nc2nc(-c3ccccc3O)nc3ccccc23)c(C)c1 | 5.09%
Cc1c(C(=O)NC(c2ccccc2)c2ccccc2)cccc1[N+](=O)[O-] | 2.26%
O=S(=O)(c1ccc(-c2ccc(O)nn2)o1)N1CCc2ccccc2C1 | -8.17%
O=C(CCc1ccccc1)Nc1cccc(NC(=O)CCc2ccccc2)c1 | 14.9%
COc1cc(-c2nnc(SCC#CCO)o2)cc(OC)c1OC | -1.15%
O=C1CC(c2ccccc2)CC(=O)C1=CNc1cc(Cl)ccc1Cl (centres unmarked) | 5.54%
COc1cc(C(=O)Nc2nnc(CCS(=O)(=O)c3ccc(Cl)cc3)s2)cc(OC)c1OC | 2.94%
O=Cc1cc(Cl)cc2c1OCOC2 | 0.906%
CCOc1ccc(C2CC(=O)Nc3c2c(=O)nc(SCc2ccccc2Cl)n3C)cc1OC (centres unmarked) | -2.88%

Compound | % Inhibition @ 10 uM
NC(=O)c1sc2nc(C34CC5CC(CC(C5)C3)C4)cc(C(F)(F)F)c2c1N | 1.89%
Cc1ccc(-n2ncc3c(=O)n(Cc4ccccn4)cnc32)cc1C | -0.0309%
COc1ccc2cc(C3CC(c4ccc(Cl)cc4)=NN3C(C)=O)c(Cl)nc2c1 (centres unmarked) | -5.31%
COc1ccc(CCNC(=O)C2=C(C)C(=O)OC23CCN(C(C)=O)CC3)cc1OC | -7.94%
N#C/C(=C\c1cccc2ccccc12)c1nc(-c2ccc([N+](=O)[O-])cc2)cs1 | 2.7%
O=c1oc2ccccc2c(O)c1NS(=O)(=O)c1ccc2c(c1)CCCC2 | -2.23%
Cc1oc2ncn3nc(-c4ccncc4)nc3c2c1C | -6.26%
CCOCCCNC(=O)c1nn(C)c2c1CS(=O)(=O)c1ccccc1-2 | 4.51%
O=C(/C=C/c1cccc([N+](=O)[O-])c1)Nc1cccc(Cl)c1Cl | 3.8%
Cc1cccc(NC(=O)c2c(-c3ccccc3Cl)noc2C)c1 | -3.69%
CCOCCOC(=O)C1=C(C)NC(=O)CC1c1cccc(Cl)c1 (centres unmarked) | 0.484%
N#Cc1ccccc1NC(=O)c1sc2nc3c(cc2c1N)CCC3 | -5.07%
COc1cc(C2C(C#N)=C(N)OC3=C2C(=O)CC(C)(C)C3)ccc1OC(C)C (centres unmarked) | -8.28%
COc1ccc(C2C3=C(O)CC(C)(C)CC3=Nc3ncnn32)c(OC)c1OC (centres unmarked) | 1.73%
Cc1cc(O)c(C(=O)/C=C/c2cccs2)c(=O)o1 | -0.268%
O=C(CSc1nc2ccccc2nc1SCC(=O)NCC1CCCO1)NCC1CCCO1 (centres unmarked) | -0.834%
Cc1cc2cc(CNC(=S)NC(C)(C)C)ccc2[nH]1 | -3.7%
COc1cc(C(=O)Nc2c(C)cc(Br)cc2C)cc(OC)c1OC | -0.171%
COc1ccc(Cl)cc1NC(=O)CSc1ncccn1 | -4.75%
CCCC(=O)Nc1ccc(C(=O)Nc2cccc(OC)c2)cc1 | -0.545%
COc1cc(OC)c(OC)cc1CN1CCN(Cc2ccncc2)CC1 | -4.26%
CCn1c2ccccc2c2nnc(SCC(=O)Nc3nccs3)nc21 | 15.8%
Cc1sc(-n2cccc2)c(C(C)NC(=O)NC23CC4CC(CC(C4)C2)C3)c1C (centres unmarked) | -3.34%
